Data taken from PubChem BioAssay AID540267 (National Center for Advancing Translational Sciences (NCATS), 2011).
About 530 (0.16%) of roughly 340,000 compounds were called active. This list was built around the results that the source calls inconclusive (neither active nor inactive); the mix of calls is not that of the screen. Cut-off read from the data, not from the text of the source: active = activity change below about -80%; inconclusive = between about -30% and that limit; inactive = weaker than that.

assay: Small Molecules that selectively kill Giardia lamblia: qHTS; settings: Giardia lamblia trophozoite viability; at 7.66 µM; hits give low values;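 note: parasites exposed to compound for two days anaerobically before the ATP read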
How it was run: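 Each well holds 100 Giardia trophozoites and compound. After two days (48 hrs) at 37 deg C in anaerobic conditions, ATP is quantified by luminescence.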
% is set by controls: 0 for no effect and ±100 for the full control effect.

SMILES	activity change
O=C(O)c1ccc2c3c(ncnc13)-c1ccccc1C2=O	inconclusive: -32.6% [inhibitor]
COc1ccccc1-c1noc(CCCC(=O)N2CCOCC2)n1	inconclusive: -31% [inhibitor]
Nc1c(C(=O)c2ccccc2)sc2nsc(SCCN3CCCC3)c12	inactive: 24.6%
COc1ccc(-c2ccc(-c3cc(=O)oc4cc(OC)c(OC)c(OC)c34)cc2)cc1OC	inactive: -5.31%
Cc1ccc(/C=N/NC(=O)c2cc(-c3ccncc3)nc3ccccc23)o1	inactive: -16.3%
CC(=O)Nc1c(-c2ccccc2Cl)c(=O)c2ccccc2n1C	inactive: -12.9%
Cc1cccc(CCN=c2c([N+](=O)[O-])nn(-c3ccccc3)n2O)c1	active: -90.8%
Cc1[nH]c2ccccc2c1SCC(=O)N1CCCc2ccccc21	inconclusive: -38.1% [inhibitor]
O=C(N/N=C(\c1ccccc1)c1ccccn1)c1cccc([N+](=O)[O-])c1	inactive: 0.156%
Cc1cc(/C=C2/SC(=S)N(c3ccc([N+](=O)[O-])cc3)C2=O)c(C)n1-c1cccnc1	inconclusive: -34% [inhibitor]
CCN1CC(C)(C)N(C(=O)c2ccccc2)CC1(C)C	inactive: 16.3%
COc1ccc(CCNC(=O)CCC(=O)N2CCOc3ccccc32)cc1OC	inconclusive: -31.8% [inhibitor]
O=c1cccc2c1c1cc[nH]c3ccc(=O)n2c31	inconclusive: -32.7% [inhibitor]
CC(C)Cc1nc2oc3c(N4CCN(CCO)CC4)ncnc3c2c2c1CCCC2	inactive: 3.02%
CCc1ccc(NC(=O)CCNC(=O)Cn2ccc3ccccc3c2=O)cc1	inconclusive: -34.2% [inhibitor]
Cc1cc(C)c(NC(=O)COC(=O)C2=COCCO2)c(Cl)c1	inactive: 12.5%
Cc1cc(NC(=O)c2ccc3nc(-c4ccccc4)c(-c4ccccc4)nc3c2)no1	inactive: -2.49%
CCCCC1CCC(C(=O)N(C)CC(=O)Nc2cccc(OC)c2)CC1 (configuration not stated)	inconclusive: -34.8% [inhibitor]
COc1ccc(-c2nsc3c(N4CCCCC4)ncnc23)cc1	inconclusive: -47.6% [inhibitor]
CC(=O)O[C@H]1C(=O)[C@@]2(C)C([C@H](OC(=O)c3ccccc3)[C@]3(O)C[C@H](OC(=O)[C@H](O)[C@@H](NC(=O)c4ccccc4)c4ccccc4)C(C)=C1C3(C)C)[C@]1(OC(C)=O)CO[C@@H]1C[C@H]2O (some centres not stated)	inconclusive: -33.6% [inhibitor]
Cc1cc(S(=O)(=O)NC[C@H]2O[C@@H](n3cnc4c(N)ncnc43)[C@H](O)[C@@H]2O)c(C)s1	inconclusive: -39% [inhibitor]
O=C(COC(=O)c1ccccc1)Nc1ccc2[nH]c(=O)[nH]c2c1	inconclusive: -31.2% [inhibitor]
COc1ccccc1Oc1ccc(NC(=O)c2ccccc2C)cc1	inconclusive: -37.7% [inhibitor]
O=C1NC(=O)C2(CCCCCCC2)N1	inactive: -9.6%
O=C(NCCn1c(-c2ccncc2)nc2ccccc21)[C@H]1CCCN1c1nc(CN2CCCCC2)cs1	inconclusive: -34.5% [inhibitor]
CC1CCc2cc(F)ccc2N1C(=O)c1cccs1 (configuration not stated)	inconclusive: -39.1% [inhibitor]

SMILES	activity change
O=C1OCc2ccc(NS(=O)(=O)c3ccc(C(F)(F)F)cc3)cc21	inconclusive: -40.6% [inhibitor]
COc1cccc(C(=O)Nc2ccncc2)c1OC	inconclusive: -30.6% [inhibitor]
Cc1ccc(-c2noc(CCC(=O)NC3CCCc4ccccc43)n2)cc1 (configuration not stated)	inactive: 1.38%
Cc1nc(-c2coc3cc(O)c(C)cc3c2=O)cs1	inconclusive: -30.8% [inhibitor]
CCOc1ccc(Nc2cc(C)nc3nc(C)nn23)cc1	inconclusive: -39.6% [inhibitor]
O=C(Cn1cc2c(n1)CCCCC2)Nc1c(F)c(F)cc(F)c1F	inconclusive: -39% [inhibitor]
O=C(Nc1ccccc1N1CCCC1)C1CCN(C(=O)c2ccc(Cl)cc2)CC1	inactive: 1.16%
COCCOC(=O)C1=C(C)N(c2ccccc2)C(=S)NC1c1ccccc1C(F)(F)F (configuration not stated)	inconclusive: -32.2% [inhibitor]
Cc1cccc(-n2nc([N+](=O)[O-])c(=NC3CCN(Cc4ccccc4)CC3)n2O)c1	active: -84.4%
O=C(O)/C=C/C(=O)N(Cc1ccc2c(c1)OCO2)C1CC(=O)N(CCc2ccccc2)C1=O (configuration not stated)	inconclusive: -38.2% [inhibitor]
Cc1oc(-c2nc3ccccc3n2C)cc1C(=O)c1ccccc1	inconclusive: -50.1% [inhibitor]
O=C(NNC(=O)c1c(O)c2ccccc2[nH]c1=O)c1ccccc1	inconclusive: -31.2% [inhibitor]
CC(=O)CCn1cc([N+](=O)[O-])nc1C	inconclusive: -42.5% [inhibitor]
CN(C(=O)c1ccc(NC(=O)Cc2cccc(NC(=O)C3CCN(C(=O)c4ccccc4)CC3)c2)cc1)C1CC1	inconclusive: -31.9% [inhibitor]
Cc1cc(NC(=O)c2ccc(Cl)cc2)cc(C)c1OCC(=O)N1CCOCC1	inconclusive: -34.8% [inhibitor]
COCCCNC(=O)CCc1c(C)nc2c(-c3ccc(F)cc3)c(C)nn2c1C	inconclusive: -41.8% [inhibitor]
COc1ccc(C(=O)Nc2ccc3ccccc3c2)cc1	inconclusive: -52.7% [inhibitor]
CC1Cc2cc(-c3csc(NC(=O)Cc4ccccc4)n3)ccc2N1S(C)(=O)=O (configuration not stated)	inactive: 6.23%
COc1cccc(/C=C/c2ccc3ccccc3n2)c1OC(C)=O	inconclusive: -45.3% [inhibitor]
O=c1c([N+](=O)[O-])cccn1Cc1ccc(F)cc1Cl	active: -94.3%
O=C(CCc1ccccc1)NNc1cc(N2CCCCC2)nc(N2CCCCC2)n1	inconclusive: -43.1% [inhibitor]
Cc1ccc(-c2n[nH]c(=S)n2/N=C\c2ccco2)cc1	inactive: -17.5%
COc1cccc(-c2nc(CS(=O)(=O)CC(=O)NC3CCCCC3C)c(C)o2)c1 (configuration not stated)	inconclusive: -30.9% [inhibitor]
COc1ccc(-c2nc(CS(=O)CC(=O)NCCC3=CCCCC3)c(C)o2)cc1 (configuration not stated)	inconclusive: -36.9% [inhibitor]
CCOC(=O)C1CCCN(C(=O)Cn2ncc3c([nH]c4ccc(C)cc43)c2=O)C1 (configuration not stated)	inactive: -21.1%
O=C1Nc2ccccc2CCc2ccccc21	inconclusive: -41.8% [inhibitor]

SMILES	activity change
Cc1ccc(C)c(N(CC(=O)NC2CCCC2)C(=O)c2csnn2)c1	inconclusive: -34.8% [inhibitor]
CC1(C)CC(=O)C(C=Nc2ccc(O)c(N=CC3=C(O)CC(C)(C)CC3=O)c2)=C(O)C1	inactive: -22.8%
Cc1cccc(N2CC(C(=O)NCC3COc4ccccc4O3)CC2=O)c1C (configuration not stated)	inconclusive: -30.5% [inhibitor]
Cc1ccc(NC(=O)CNC(=O)OCc2ccccc2)cc1C	inconclusive: -30.2% [inhibitor]
O=[N+]([O-])c1ccc(/C=N/N=C/c2ccc([N+](=O)[O-])o2)o1	inactive: -18%
COc1ccccc1CNC(=O)CS(=O)Cc1nc(-c2ccc(OC)c(OC)c2)oc1C (configuration not stated)	inconclusive: -34.6% [inhibitor]
c1ccc(COc2ncnc3c2ncn3CCCN2CCN(c3ccccn3)CC2)cc1	inactive: -2.22%
COCc1cc(=O)[nH]c(Nc2nc(C)c3ccccc3n2)n1	inconclusive: -31.6% [inhibitor]
COc1ccccc1N1CCN(C(=O)CN(C)S(=O)(=O)c2cc(C)ccc2OC)CC1	inconclusive: -35.6% [inhibitor]
Cc1cc(C)c2nc(NC(=O)c3ccc([N+](=O)[O-])o3)sc2c1	active: -90.4%
O=C(O)c1cc(Cl)c(Cl)cc1C(=O)N1CCCC1	active: -90.8%
Cc1nc(-c2ccc3c(c2)OCO3)cs1	inactive: 9.03%
O=C(N=Nc1c(O)[nH]c2ccccc12)c1ccc2c(c1)OCO2	active: -82.2%
O=C(COC(=O)c1n[nH]c2ccccc12)NC1CCCCC1	inactive: -1.73%
CCN(CCO)c1ccc(N=Nc2cc(C)[nH]n2)cc1	inconclusive: -72.5% [inhibitor]
CCc1ccc(CNC(=O)c2nn(C)c3c2CS(=O)(=O)c2ccccc2-3)cc1	inactive: 5.86%
O=c1c2cnn(-c3ccccc3)c2nc(-c2ccco2)n1-c1ccccc1	inactive: 0.678%
Cc1cc2cc(CNC(=O)Nc3ccc(Cl)c(Cl)c3)ccc2n1C	inconclusive: -31.2% [inhibitor]
CSCC[C@@H](C(=O)NCCCCCCCCCCC(=O)N1CCN(C(=O)OC(C)(C)C)CC1)n1cc(CCO)nn1	inconclusive: -34.6% [inhibitor]
O=C(CCn1c(=O)c2ccccc2n(Cc2cccc([N+](=O)[O-])c2)c1=O)N1CCc2ccccc2C1	inactive: 10.9%
O=C(/C=C/c1ccc2c(c1)OCO2)Nc1cccnc1	inconclusive: -49.2% [inhibitor]
O=C1/C(=C/Nc2ccc3c(c2)OCO3)CCc2ccccc21	inconclusive: -40.2% [inhibitor]
Nc1ccc(-c2nc3cc(N)ccc3s2)cc1	inconclusive: -32.8% [inhibitor]
Nc1c(-c2ccc(Cl)cc2)cnn1-c1cc(C(F)(F)F)cc(C(F)(F)F)c1	inconclusive: -36.3% [inhibitor]
Cc1ccc(-c2nnn(CC(=O)N(Cc3ccco3)C(C(=O)NC(C)(C)C)c3ccc(C)o3)n2)o1 (configuration not stated)	inactive: 28.2%
